The other results are listed elsewhere or left out.

The test system of one assay is HSkMC. The experiment in a line: cytotoxicity call (relative viability < 0.9). The settings on record: 10 µM.
Another assay relates to HepG2. Nature of the assay: cytotoxicity call (relative viability < 0.9). The settings on record: 10 µM.
For a further assay, the system named is S. aureus RN4220. Nature of the assay: growth inhibition call (relative growth <= 0.2). The settings on record: 50 µM.

Take `CO[C@@H]1CN(C)C(=O)c2cc(NC(=O)c3ccc(F)cc3)ccc2OC[C@H](C)N(C(=O)CN(C)C)C[C@H]1C`: the cytotoxicity call in the assay with HSkMC and with HepG2 was “inactive” throughout. Moreover, the growth inhibition call in the assay with S. aureus RN4220 was “inactive”.
With `Cc1ccccc1S(=O)(=O)N1C[C@H](O)COC[C@@H]2O[C@H](CC(=O)N3CCC(Cc4ccccc4)CC3)CC[C@H]21`, the cytotoxicity call in the assay with HSkMC and in the assay on HepG2 was “inactive” throughout. Moreover, the growth inhibition call in the assay on S. aureus RN4220 was “inactive”.
As to `C[C@H]1CN([C@@H](C)CO)C(=O)c2cccc(NC(=O)C3CC3)c2O[C@H]1CN(C)Cc1ccc(Oc2ccccc2)cc1`, the cytotoxicity call in the assay on HSkMC and in the assay on HepG2 was “inactive” throughout. Moreover, the growth inhibition call in the assay with S. aureus RN4220 is “inactive”.
In the case of `C[C@H]1CN([C@@H](C)CO)C(=O)c2cc(NC(=O)Nc3ccccc3)ccc2O[C@H]1CN(C)Cc1ccc(Cl)c(Cl)c1`, the cytotoxicity call with HSkMC and in the assay on HepG2 was “active” each time. Further, the growth inhibition call with S. aureus RN4220 was “inactive”.
As to `COc1ccccc1S(=O)(=O)N[C@@H]1CC[C@@H](CCNC(=O)C2CCOCC2)O[C@H]1CO`, the cytotoxicity call in the assay on HSkMC and in the assay with HepG2 was “inactive” in each case. In the assay on S. aureus RN4220, the growth inhibition call was “inactive”.
With `CS(=O)(=O)N1[C@@H]2c3ccc(-c4ccc(F)cc4)c(=O)n3C[C@@H]2[C@@H](CO)[C@@H]1C(=O)O`, the cytotoxicity call in the assay with HSkMC and in the assay on HepG2 was “inactive” each time. In addition, in the assay on S. aureus RN4220, the growth inhibition call is “inactive”.
Turning to `CCN(CC)CCNC(=O)COc1ccc(OC)cc1.Cl`, the cytotoxicity call with HSkMC and with HepG2 was “inactive” throughout. Moreover, the growth inhibition call in the assay on S. aureus RN4220 was “inactive”.
As for `C[C@@H]1CN([C@@H](C)CO)C(=O)CCCn2nncc2CO[C@@H]1CN(C)C(=O)Nc1ccccc1C(F)(F)F`, the cytotoxicity call in the assay on HSkMC and in the assay with HepG2 was “inactive” throughout. In the assay with S. aureus RN4220, the growth inhibition call was “inactive”.
With `Cc1noc(C)c1S(=O)(=O)Nc1ccc2c(c1)C(=O)N([C@H](C)CO)C[C@H](C)[C@@H](CN(C)S(=O)(=O)c1cn(C)cn1)O2`, the cytotoxicity call in the assay on HSkMC and in the assay with HepG2 was “inactive” in each case. For the same molecule, the growth inhibition call in the assay with S. aureus RN4220 is “inactive”.
Turning to `C[C@H](CO)N1C[C@H](C)[C@@H](CN(C)S(=O)(=O)c2ccccc2)Oc2ccc(NS(=O)(=O)c3ccccc3)cc2C1=O`, the cytotoxicity call in the assay on HSkMC and with HepG2 was “inactive” each time. The growth inhibition call in the assay with S. aureus RN4220 is “inactive”.
Regarding `O=c1cc(CO)occ1O`, the cytotoxicity call in the assay on HSkMC and in the assay with HepG2 was “inactive” in each case. Also, the growth inhibition call in the assay on S. aureus RN4220 is “inactive”.
Regarding `C[C@@H]1CCCCO[C@@H](CN(C)C(=O)Nc2ccc(F)cc2)[C@@H](C)CN([C@@H](C)CO)C(=O)c2cc(NC(=O)Nc3ccc(C(F)(F)F)cc3)ccc2O1`, the cytotoxicity call in the assay with HSkMC and in the assay on HepG2 was “inactive” each time. Besides, the growth inhibition call in the assay on S. aureus RN4220 is “inactive”.
Regarding `C[C@@H]1CCCCO[C@H](CN(C)S(=O)(=O)c2cccs2)[C@@H](C)CN([C@H](C)CO)C(=O)c2cc(NC(=O)c3ccccc3)ccc2O1`, the cytotoxicity call in the assay with HSkMC and with HepG2 was “inactive” each time. The growth inhibition call in the assay with S. aureus RN4220 is “inactive”.
Consider `Cc1nc(CSCc2ccc(Cl)cc2Cl)cs1`, for which the cytotoxicity call in the assay with HSkMC and with HepG2 was “inactive” throughout. Further, the growth inhibition call with S. aureus RN4220 was “inactive”.
`C[C@H](CO)N1C[C@H](C)[C@H](CN(C)S(=O)(=O)c2ccccc2)Oc2ccc(NS(C)(=O)=O)cc2C1=O`: the cytotoxicity call in the assay on HSkMC and in the assay on HepG2 was “inactive” in each case. Besides, the growth inhibition call with S. aureus RN4220 is “inactive”.
`Cc1noc(C)c1S(=O)(=O)N(C)C[C@@H]1Oc2c(NC(=O)C3CC3)cccc2C(=O)N([C@H](C)CO)C[C@@H]1C`: the cytotoxicity call in the assay on HSkMC and in the assay on HepG2 was “inactive” each time. In the assay with S. aureus RN4220, the growth inhibition call was “inactive”.
As to `C[C@@H]1CN([C@@H](C)CO)C(=O)c2cc(NS(=O)(=O)c3cccs3)ccc2O[C@@H](C)CCCCO[C@H]1CN(C)C(=O)Nc1ccc(F)cc1`, the cytotoxicity call in the assay with HSkMC and in the assay with HepG2 was “inactive” in each case. In addition, the growth inhibition call in the assay on S. aureus RN4220 is “inactive”.
`COc1ccc(CNC(=O)C[C@@H]2CC[C@H]3[C@@H](COc4ccc(NC(=O)C5CC5)cc4C(=O)N3C)O2)cc1`: the cytotoxicity call with HSkMC and in the assay on HepG2 was “inactive” in each case. In the assay on S. aureus RN4220, the growth inhibition call was “inactive”.
In the case of `O=C(N[C@@H]1C=C[C@@H](CC(=O)N2CCOCC2)O[C@H]1CO)c1ccc2c(c1)OCO2`, the cytotoxicity call in the assay with HSkMC and in the assay with HepG2 was “inactive” each time. In addition, in the assay with S. aureus RN4220, the growth inhibition call is “inactive”.
As to `C[C@H]1CN([C@@H](C)CO)C(=O)c2cc(NC(=O)Nc3ccc4c(c3)OCO4)ccc2O[C@H]1CN(C)S(=O)(=O)c1cn(C)cn1`, the cytotoxicity call in the assay on HSkMC and with HepG2 was “inactive” each time. Further, in the assay with S. aureus RN4220, the growth inhibition call is “inactive”.
Turning to `C[C@H](CO)N1C[C@H](C)[C@H](CN(C)Cc2cccc(C(F)(F)F)c2)Oc2ncc(C#CCN(C)C)cc2C1=O`, the cytotoxicity call in the assay on HSkMC and in the assay with HepG2 was “inactive” throughout. The growth inhibition call with S. aureus RN4220 is “inactive”.
Take `COCCOC(=O)N1C(=O)[C@@]2(c3cc(C#CCCO)ccc31)[C@H](c1ccc(O)cc1)N1[C@H](c3ccccc3)[C@H](c3ccccc3)OC(=O)[C@H]1[C@@H]2C(=O)N1CCc2cc(OC)c(OC)cc2C1`: the cytotoxicity call in the assay on HSkMC and with HepG2 was “inactive” each time. Further, the growth inhibition call with S. aureus RN4220 is “inactive”.
As for `COc1cccc(C#Cc2cnc3c(c2)C(=O)N([C@H](C)CO)C[C@@H](C)[C@@H](CN(C)C(=O)C2CCOCC2)O3)c1`, the cytotoxicity call with HSkMC and with HepG2 was “inactive” throughout. In the assay with S. aureus RN4220, the growth inhibition call is “inactive”.
As to `C[C@H](CO)N1C[C@H](C)[C@H](CN(C)S(=O)(=O)c2cn(C)cn2)Oc2c(NC(=O)c3ccc(-c4nccs4)cc3)cccc2C1=O`, the cytotoxicity call in the assay with HSkMC and with HepG2 was “inactive” each time. For the same molecule, the growth inhibition call in the assay with S. aureus RN4220 was “inactive”.
Regarding `C[C@H](CO)N1C[C@H](C)[C@@H](CN(C)S(=O)(=O)c2ccccc2)Oc2ccc(NC(=O)C3CC3)cc2CC1=O`, the cytotoxicity call in the assay on HSkMC and with HepG2 was “inactive” in each case. In the assay on S. aureus RN4220, the growth inhibition call was “inactive”.
For `C[C@@H]1CN([C@H](C)CO)S(=O)(=O)c2ccc(C#CC3CCCC3)cc2O[C@@H]1CN(C)Cc1cncnc1`, the cytotoxicity call in the assay with HSkMC and in the assay on HepG2 was “inactive” throughout. Besides, the growth inhibition call in the assay on S. aureus RN4220 is “inactive”.
For `C[C@@H]1CCCCO[C@H](CN(C)C(=O)c2ccccc2)[C@@H](C)CN([C@@H](C)CO)C(=O)c2cc(NC(=O)NC3CCCCC3)ccc2O1`, the cytotoxicity call with HSkMC and with HepG2 was “inactive” in each case. The growth inhibition call with S. aureus RN4220 is “inactive”.
For the molecule `O=C(Nc1cccc2cccnc12)[C@@H]1[C@H](c2cc(Cl)cc(Br)c2)CC(=O)N1C(=O)OCc1ccccc1`, in the assay on HSkMC (human skeletal muscle cells), the cytotoxicity call is “inactive”. The cytotoxicity call in the assay on HepG2 was “active”. Besides, in the assay on S. aureus RN4220, the growth inhibition call is “inactive”.

Source of the values: the antibiotic and cytotoxicity screens of Wong et al. (2023).
